Test results from the antibiotic and cytotoxicity screens of Wong et al. (2023).
This is one part of the list.

Tests used:
HSkMC = human skeletal muscle cells; assay: cytotoxicity call (relative viability < 0.9); settings: 10 µM
HepG2 = assay: cytotoxicity call (relative viability < 0.9); settings: 10 µM
S. aureus RN4220 = assay: growth inhibition call (relative growth <= 0.2); settings: 50 µM

O=C(C[C@H]1CC[C@H](NC(=O)Cc2ccccn2)[C@H](CO)O1)NCCc1ccncc1
cytotoxicity call (HSkMC): inactive
cytotoxicity call (HepG2): inactive
growth inhibition call (S. aureus RN4220): inactive

C[C@H](CO)N1C[C@H](C)[C@H](CN(C)S(=O)(=O)c2ccccc2)OCCCC[C@H](C)Oc2ccc(NC(=O)Nc3ccc(F)cc3)cc2C1=O
cytotoxicity call (HSkMC): inactive
cytotoxicity call (HepG2): inactive
growth inhibition call (S. aureus RN4220): inactive

C[C@H]1CN([C@@H](C)CO)C(=O)Cc2cc(NC(=O)CCC(F)(F)F)ccc2O[C@H]1CN(C)Cc1ccc(C(F)(F)F)cc1
cytotoxicity call (HSkMC): inactive
cytotoxicity call (HepG2): inactive
growth inhibition call (S. aureus RN4220): inactive

Cc1ccc2nc(-c3ccc(NC(=O)C4CCC4)cc3)sc2c1
cytotoxicity call (HSkMC): inactive
cytotoxicity call (HepG2): inactive
growth inhibition call (S. aureus RN4220): inactive

C[C@@H]1CN([C@@H](C)CO)C(=O)c2cc(C#Cc3cccnc3)cnc2O[C@H]1CN(C)S(=O)(=O)c1ccccc1F
cytotoxicity call (HSkMC): inactive
cytotoxicity call (HepG2): inactive
growth inhibition call (S. aureus RN4220): inactive

C[C@H]1CN([C@@H](C)CO)C(=O)Cc2cc(NC(=O)C3CCCCC3)ccc2O[C@H]1CN(C)Cc1ccc(Cl)c(Cl)c1
cytotoxicity call (HSkMC): inactive
cytotoxicity call (HepG2): inactive
growth inhibition call (S. aureus RN4220): inactive

C[C@@H]1CN([C@H](C)CO)C(=O)c2cc(NS(=O)(=O)c3cccs3)ccc2O[C@H]1CN(C)C(=O)Nc1cccc2ccccc12
cytotoxicity call (HSkMC): inactive
cytotoxicity call (HepG2): inactive
growth inhibition call (S. aureus RN4220): inactive

C[C@H](CO)N1C[C@H](C)[C@H](CN(C)C(=O)Nc2ccccc2)Oc2ncc(-c3cccc(C(F)(F)F)c3)cc2C1=O
cytotoxicity call (HSkMC): inactive
cytotoxicity call (HepG2): inactive
growth inhibition call (S. aureus RN4220): inactive

C[C@@H]1CN([C@@H](C)CO)C(=O)c2cc(NS(C)(=O)=O)ccc2O[C@H]1CN(C)C(=O)Nc1ccc2c(c1)OCO2
cytotoxicity call (HSkMC): inactive
cytotoxicity call (HepG2): inactive
growth inhibition call (S. aureus RN4220): inactive

C[C@@H]1CN([C@@H](C)CO)C(=O)Cc2cc(NC(=O)Nc3cccc4ccccc34)ccc2O[C@H]1CN(C)Cc1ccncc1
cytotoxicity call (HSkMC): inactive
cytotoxicity call (HepG2): inactive
growth inhibition call (S. aureus RN4220): inactive

C[C@@H]1CN([C@H](C)CO)C(=O)c2cc(NC(=O)C3CCCCC3)ccc2O[C@@H]1CN(C)S(=O)(=O)c1cn(C)cn1
cytotoxicity call (HSkMC): inactive
cytotoxicity call (HepG2): inactive
growth inhibition call (S. aureus RN4220): inactive

COc1ccc(S(=O)(=O)N(C)C[C@@H]2OCCCC[C@H](C)Oc3ccc(NS(=O)(=O)c4ccc(Cl)cc4)cc3C(=O)N([C@H](C)CO)C[C@@H]2C)cc1
cytotoxicity call (HSkMC): inactive
cytotoxicity call (HepG2): active
growth inhibition call (S. aureus RN4220): inactive

C[C@@H]1CCCCO[C@@H](CN(C)S(=O)(=O)c2ccc(Cl)cc2)[C@@H](C)CN([C@H](C)CO)C(=O)c2cc(NS(=O)(=O)c3ccccc3)ccc2O1
cytotoxicity call (HSkMC): inactive
cytotoxicity call (HepG2): inactive
growth inhibition call (S. aureus RN4220): inactive

C[C@@H]1CN([C@H](C)CO)C(=O)c2ccccc2-c2ccccc2CO[C@@H]1CN(C)S(=O)(=O)c1cn(C)cn1
cytotoxicity call (HSkMC): inactive
cytotoxicity call (HepG2): inactive
growth inhibition call (S. aureus RN4220): inactive

CN(C)CCCNC(=O)C[C@H]1CC[C@H]2[C@@H](COC[C@@H](O)CN2S(=O)(=O)c2ccc(F)cc2)O1
cytotoxicity call (HSkMC): inactive
cytotoxicity call (HepG2): inactive
growth inhibition call (S. aureus RN4220): inactive

CN1[C@@H]2Cn3c(ccc(-c4ccccc4)c3=O)[C@H]1[C@@H](C(=O)NCCCN1CCOCC1)[C@@H]2CO
cytotoxicity call (HSkMC): inactive
cytotoxicity call (HepG2): inactive
growth inhibition call (S. aureus RN4220): inactive

C[C@@H]1CCCCO[C@H](CN(C)S(=O)(=O)c2ccc(Cl)cc2)[C@@H](C)CN([C@@H](C)CO)C(=O)c2cc(NC(=O)Cc3ccccc3)ccc2O1
cytotoxicity call (HSkMC): inactive
cytotoxicity call (HepG2): inactive
growth inhibition call (S. aureus RN4220): inactive

C[C@H]1CN([C@@H](C)CO)C(=O)c2cccc(NS(C)(=O)=O)c2O[C@@H]1CN(C)C(=O)Nc1ccc2c(c1)OCO2
cytotoxicity call (HSkMC): inactive
cytotoxicity call (HepG2): inactive
growth inhibition call (S. aureus RN4220): inactive

C[C@@H]1CN([C@H](C)CO)C(=O)c2cccc(NS(C)(=O)=O)c2O[C@@H]1CN(C)C(=O)Nc1ccc(C(F)(F)F)cc1
cytotoxicity call (HSkMC): inactive
cytotoxicity call (HepG2): inactive
growth inhibition call (S. aureus RN4220): active

CCN1OCN(c2nc(N(C)C)nc(N(C)C)n2)C1=N
cytotoxicity call (HSkMC): inactive
cytotoxicity call (HepG2): inactive
growth inhibition call (S. aureus RN4220): inactive

COc1ccc(CN(C)C[C@H]2OCCCC[C@H](C)Oc3ccc(NS(=O)(=O)c4ccc(OC)cc4)cc3C(=O)N([C@@H](C)CO)C[C@H]2C)cc1
cytotoxicity call (HSkMC): inactive
cytotoxicity call (HepG2): inactive
growth inhibition call (S. aureus RN4220): inactive

O=C(C[C@@H]1CC[C@@H]2[C@H](COC[C@H](O)CN2S(=O)(=O)c2ccc(Cl)cc2)O1)N[C@H]1CCN(Cc2ccccc2)C1
cytotoxicity call (HSkMC): inactive
cytotoxicity call (HepG2): inactive
growth inhibition call (S. aureus RN4220): inactive

S=c1[nH]cn[nH]1
cytotoxicity call (HSkMC): inactive
cytotoxicity call (HepG2): inactive
growth inhibition call (S. aureus RN4220): inactive

COCCN1C[C@H](C(=O)O)CC1=O
cytotoxicity call (HSkMC): inactive
cytotoxicity call (HepG2): inactive
growth inhibition call (S. aureus RN4220): inactive

O=C(NCCCc1nn[nH]n1)c1[nH]nc2c1CCC2
cytotoxicity call (HSkMC): inactive
cytotoxicity call (HepG2): inactive
growth inhibition call (S. aureus RN4220): inactive

COc1ccccc1-c1ccc2c(c1)O[C@@H](CN(C)CC1CCOCC1)[C@@H](C)CN([C@H](C)CO)S2(=O)=O
cytotoxicity call (HSkMC): inactive
cytotoxicity call (HepG2): inactive
growth inhibition call (S. aureus RN4220): inactive

C[C@H]1CN([C@@H](C)CO)C(=O)Cc2cc(NC(=O)Nc3ccc(F)cc3)ccc2O[C@H]1CN(C)S(C)(=O)=O
cytotoxicity call (HSkMC): inactive
cytotoxicity call (HepG2): inactive
growth inhibition call (S. aureus RN4220): inactive

COc1ccccc1OCC(O)CN1CCN(CC(=O)Nc2c(C)cccc2C)CC1.Cl.Cl (stereo unspecified)
cytotoxicity call (HSkMC): inactive
cytotoxicity call (HepG2): inactive
growth inhibition call (S. aureus RN4220): inactive

N[C@H](CCC(=O)NCC(=O)O)C(=O)O
cytotoxicity call (HSkMC): inactive
cytotoxicity call (HepG2): inactive
growth inhibition call (S. aureus RN4220): inactive

Cc1noc(C)c1S(=O)(=O)Nc1ccc2c(c1)C(=O)N([C@@H](C)CO)C[C@H](C)[C@H](CN(C)C(=O)Nc1ccc(F)cc1)OCCCC[C@H](C)O2
cytotoxicity call (HSkMC): inactive
cytotoxicity call (HepG2): inactive
growth inhibition call (S. aureus RN4220): inactive

C[C@H]1CN([C@@H](C)CO)S(=O)(=O)c2ccc(C#CC3(O)CCCC3)cc2O[C@H]1CN(C)C(=O)Nc1cccc(F)c1
cytotoxicity call (HSkMC): inactive
cytotoxicity call (HepG2): inactive
growth inhibition call (S. aureus RN4220): inactive

O=C(O)CCCCCCCCCCCCC1C=CCC1 (stereo unspecified)
cytotoxicity call (HSkMC): inactive
cytotoxicity call (HepG2): inactive
growth inhibition call (S. aureus RN4220): inactive

C[C@@H]1CCCCO[C@@H](CN(C)S(=O)(=O)c2ccc(Cl)cc2)[C@@H](C)CN([C@H](C)CO)C(=O)c2cc(NS(=O)(=O)c3cccs3)ccc2O1
cytotoxicity call (HSkMC): inactive
cytotoxicity call (HepG2): inactive
growth inhibition call (S. aureus RN4220): inactive

Cc1noc(C)c1NC(=O)N(C)C[C@@H]1Oc2ccc(NC(=O)NC(C)C)cc2CC(=O)N([C@@H](C)CO)C[C@H]1C
cytotoxicity call (HSkMC): inactive
cytotoxicity call (HepG2): inactive
growth inhibition call (S. aureus RN4220): inactive

C[C@@H]1CCCCO[C@H](CN(C)C(=O)C2CCCCC2)[C@H](C)CN([C@H](C)CO)C(=O)c2cc(NS(=O)(=O)c3ccc(Cl)cc3)ccc2O1
cytotoxicity call (HSkMC): inactive
cytotoxicity call (HepG2): inactive
growth inhibition call (S. aureus RN4220): inactive

COC(=O)CCc1ccc(OC)cc1O
cytotoxicity call (HSkMC): inactive
cytotoxicity call (HepG2): inactive
growth inhibition call (S. aureus RN4220): inactive

C[C@H](CO)N1C[C@H](C)[C@H](CN(C)Cc2ccc(Oc3ccccc3)cc2)Oc2ccc(NC(=O)C3CCCCC3)cc2C1=O
cytotoxicity call (HSkMC): inactive
cytotoxicity call (HepG2): inactive
growth inhibition call (S. aureus RN4220): inactive

Nc1ccc(S(=O)(=O)c2ccc(N)cc2)cc1
cytotoxicity call (HSkMC): inactive
cytotoxicity call (HepG2): inactive
growth inhibition call (S. aureus RN4220): inactive

COCCNC(=O)C[C@@H]1CC[C@@H](NS(=O)(=O)c2ccc(C)cc2)[C@@H](CO)O1
cytotoxicity call (HSkMC): inactive
cytotoxicity call (HepG2): inactive
growth inhibition call (S. aureus RN4220): inactive

C[C@H]1CN([C@@H](C)CO)C(=O)c2cccc(NC(=O)Nc3ccc(C(F)(F)F)cc3)c2O[C@H]1CN(C)CC1CCCCC1
cytotoxicity call (HSkMC): inactive
cytotoxicity call (HepG2): active
growth inhibition call (S. aureus RN4220): inactive

CN(C)C(=O)c1ccc(CO)cc1
cytotoxicity call (HSkMC): inactive
cytotoxicity call (HepG2): inactive
growth inhibition call (S. aureus RN4220): inactive

CO[C@H]1CN(C)C(=O)c2ccc(NS(C)(=O)=O)cc2OC[C@@H](C)N(C(=O)CN(C)C)C[C@@H]1C
cytotoxicity call (HSkMC): inactive
cytotoxicity call (HepG2): inactive
growth inhibition call (S. aureus RN4220): inactive

Cc1noc(C)c1NC(=O)N(C)C[C@@H]1Oc2ccc(NC(=O)CCCN(C)C)cc2C(=O)N([C@H](C)CO)C[C@H]1C
cytotoxicity call (HSkMC): inactive
cytotoxicity call (HepG2): inactive
growth inhibition call (S. aureus RN4220): inactive

O=C(C[C@@H]1CC[C@H]2[C@@H](COC[C@H](O)CN2C(=O)c2cnccn2)O1)NCc1ccc(Oc2ccccc2)cc1
cytotoxicity call (HSkMC): inactive
cytotoxicity call (HepG2): inactive
growth inhibition call (S. aureus RN4220): inactive

COc1ccc(S(=O)(=O)Nc2ccc3c(c2)C(=O)N([C@@H](C)CO)C[C@H](C)[C@H](CN(C)S(=O)(=O)c2ccc(Cl)cc2)OCCCC[C@@H](C)O3)cc1
cytotoxicity call (HSkMC): inactive
cytotoxicity call (HepG2): active
growth inhibition call (S. aureus RN4220): inactive

O=C(C[C@H]1C=C[C@@H](NC(=O)c2ccc(F)cc2)[C@H](CO)O1)NCc1ccncn1
cytotoxicity call (HSkMC): inactive
cytotoxicity call (HepG2): inactive
growth inhibition call (S. aureus RN4220): inactive

C[C@H]1CN([C@@H](C)CO)C(=O)c2cc(NC(=O)CCN3CCOCC3)ccc2O[C@@H]1CN(C)S(=O)(=O)c1ccc(Cl)cc1
cytotoxicity call (HSkMC): inactive
cytotoxicity call (HepG2): inactive
growth inhibition call (S. aureus RN4220): inactive

CCN1[C@H](C(=O)NCCOC)[C@@H](CO)[C@@H]2Cn3c(ccc(-c4ccc(C(=O)N(C)C)cc4)c3=O)[C@@H]21
cytotoxicity call (HSkMC): inactive
cytotoxicity call (HepG2): inactive
growth inhibition call (S. aureus RN4220): inactive

Cc1noc(C)c1NC(=O)Nc1ccc2c(c1)C(=O)N([C@H](C)CO)C[C@H](C)[C@@H](CN(C)C(=O)NC1CCCCC1)OCCCC[C@@H](C)O2
cytotoxicity call (HSkMC): inactive
cytotoxicity call (HepG2): inactive
growth inhibition call (S. aureus RN4220): inactive

C[C@@H]1CN([C@H](C)CO)C(=O)c2cc(NC(=O)CCC(F)(F)F)ccc2O[C@H]1CN(C)C(=O)Nc1cccc2ccccc12
cytotoxicity call (HSkMC): inactive
cytotoxicity call (HepG2): inactive
growth inhibition call (S. aureus RN4220): inactive

COC[C@H]1CNN1C(=O)C1CCCC1
cytotoxicity call (HSkMC): inactive
cytotoxicity call (HepG2): inactive
growth inhibition call (S. aureus RN4220): inactive

C[C@H](CO)N1C[C@H](C)[C@@H](CN(C)S(=O)(=O)c2ccc(F)cc2)Oc2cc(C#Cc3ccncc3)ccc2S1(=O)=O
cytotoxicity call (HSkMC): inactive
cytotoxicity call (HepG2): inactive
growth inhibition call (S. aureus RN4220): inactive

O=C(N[C@H]1CC[C@H](CCNS(=O)(=O)c2ccc(F)cc2)O[C@H]1CO)C1CC1
cytotoxicity call (HSkMC): inactive
cytotoxicity call (HepG2): inactive
growth inhibition call (S. aureus RN4220): inactive

C[C@@H]1CN([C@H](C)CO)C(=O)c2cc(NC(=O)CCN3CCOCC3)ccc2O[C@@H]1CN(C)C(=O)NC1CCCCC1
cytotoxicity call (HSkMC): inactive
cytotoxicity call (HepG2): inactive
growth inhibition call (S. aureus RN4220): inactive

C[C@H]1CN([C@@H](C)CO)C(=O)c2cc(NS(=O)(=O)c3ccc(Cl)cc3)ccc2O[C@H]1CN(C)Cc1ccc(Oc2ccccc2)cc1
cytotoxicity call (HSkMC): active
cytotoxicity call (HepG2): inactive
growth inhibition call (S. aureus RN4220): inactive

C[C@@H]1CN([C@@H](C)CO)C(=O)c2cccc(NS(=O)(=O)c3cn(C)cn3)c2O[C@H]1CN(C)S(=O)(=O)c1cn(C)cn1
cytotoxicity call (HSkMC): inactive
cytotoxicity call (HepG2): inactive
growth inhibition call (S. aureus RN4220): inactive

COc1ccc(NC(=O)N(C)C[C@H]2OCc3ccccc3-c3c(n(C)c4ccccc34)C(=O)N([C@H](C)CO)C[C@@H]2C)c(OC)c1
cytotoxicity call (HSkMC): inactive
cytotoxicity call (HepG2): inactive
growth inhibition call (S. aureus RN4220): inactive
